Source: PubChem BioAssay AID1460 (National Center for Advancing Translational Sciences (NCATS), 2008)
Where “and” joins values, the source holds several entries; their conditions need not be identical. Equal values may be shown once. In all, about 270,000 compounds went through this assay and about 5,800 (2.1%) were called active. Inconclusive means that the source gave no clear call. Such entries were picked first, then a sample of the others. The call rests on the fitted dose curve; in most records, active means well fitted inhibition curve with a large enough effect; inconclusive means small, poorly fitted or top-dose-only effect; inactive means flat fitted curve, though single readings scatter. Potencies beside an inconclusive call are fits to weak or partial responses and may not hold up.
Further: nearly all actives have a fitted effect of over 55% in size.
On the % scale 0 is the no-effect control and ±100 the full control effect; potency means the concentration at half of the fitted maximal effect; tags describe the fitted curve by direction and shape.

These compounds were tested against Microtubule-associated protein tau (Homo sapiens) (UniProt P10636) (assay: qHTS for Inhibitors of Tau Fibril Formation, Thioflavin T Binding). Conditions: recombinant tau K18 P301L (four-repeat tau fragment), heparin-induced fibrillization, ThT fluorescence; series mostly up to 57.4 µM; activity, negative = inhibition: at the top concentration.
Chain of UniProt P10636 (P10636 whole entry, looked up, the tested form may be a part): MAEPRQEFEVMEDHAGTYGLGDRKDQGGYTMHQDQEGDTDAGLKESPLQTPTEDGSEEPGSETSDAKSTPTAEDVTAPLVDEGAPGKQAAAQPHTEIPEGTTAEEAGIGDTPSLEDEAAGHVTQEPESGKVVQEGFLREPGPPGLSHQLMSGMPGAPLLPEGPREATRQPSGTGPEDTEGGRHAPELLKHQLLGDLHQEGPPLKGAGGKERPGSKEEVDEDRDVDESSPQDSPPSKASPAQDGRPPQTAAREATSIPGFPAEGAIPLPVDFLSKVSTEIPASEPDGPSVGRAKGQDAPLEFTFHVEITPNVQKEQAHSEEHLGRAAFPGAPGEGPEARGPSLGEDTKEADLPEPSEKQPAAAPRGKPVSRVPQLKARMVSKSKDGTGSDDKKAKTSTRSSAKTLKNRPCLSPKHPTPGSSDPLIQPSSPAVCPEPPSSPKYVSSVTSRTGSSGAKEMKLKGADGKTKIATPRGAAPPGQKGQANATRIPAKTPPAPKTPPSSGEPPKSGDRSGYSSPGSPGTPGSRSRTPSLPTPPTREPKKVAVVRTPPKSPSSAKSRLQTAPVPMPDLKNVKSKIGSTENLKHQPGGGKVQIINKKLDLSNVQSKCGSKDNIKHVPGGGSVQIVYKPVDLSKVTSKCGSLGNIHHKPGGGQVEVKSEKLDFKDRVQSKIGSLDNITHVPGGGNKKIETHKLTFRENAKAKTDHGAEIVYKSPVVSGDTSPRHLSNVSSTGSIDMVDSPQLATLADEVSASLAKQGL
In short: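 Heparin-induced fibrillization of the P301L-mutant K18 repeat-domain fragment of human tau was followed by ThT binding in quantitative high-throughput format.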
For `Cc1ccc(CONC(=O)/N=C/N(C)C)cc1`, the “activity, negative = inhibition” value was inactive: 0.268%.
With `CC(C)CC(COCc1ccc(Cl)cc1)N1CCN(C(=O)c2cccc(C(F)(F)F)c2)CCC1=O` (stereo not drawn) the Potency was inconclusive: 28.2 µM [inhibitor, single point].
With `CCN(CC)S(=O)(=O)c1ccc(N2CCOCC2)c(NC(=O)Cc2ccc(Cl)cc2)c1` the “activity, negative = inhibition” value was inactive: -16.6%.
In the case of `COc1ccc(-c2nc3ccccc3s2)cc1NC(=O)c1cccc([N+](=O)[O-])c1C`, the Potency is reported as inconclusive: 4.47 µM [inhibitor, full curve].
With `CN(C)c1ccc(/C=C(\C#N)C(=O)c2ccccc2)cc1` the Potency was inconclusive: 12.6 µM [inhibitor, partial curve].
With `CCn1c(=N)c(C(=O)NCC2CCCO2)cc2c(=O)n3cc(C)ccc3nc21` (stereo not drawn) the “activity, negative = inhibition” value was inactive: 5.65%.
In the case of `CCC(=O)Nc1ccc(C(=O)Nc2ccc3c(c2)OCO3)cc1`, the Potency is reported as inconclusive: 10 µM [inhibitor, partial curve].
For `Cc1ccc(Cn2c(CNC(=O)Cc3cccc([N+](=O)[O-])c3)nc3cccnc32)cc1`, the Potency was inconclusive: 28.2 µM [inhibitor, single point].
`S=C(Nc1ccc(Oc2ccccc2)cc1)N1CCN(c2ccccn2)CC1` was tested, and the Potency was inconclusive: 3.98 µM [inhibitor, full curve, poor fit].
`CCOC(=O)C1CCN(Cc2c(F)cccc2Cl)CC1` was tested, and the “activity, negative = inhibition” value was inactive: 4.98%.
With `CCCCN(Cc1cc2cc(OC)ccc2[nH]c1=O)C(=O)c1ccco1` the Potency was inconclusive: 39.8 µM [inhibitor, partial curve, poor fit].
In the case of `COc1cc(-c2nc3oc4ccccc4c(=O)c3c(=O)n2Cc2ccco2)cc(OC)c1OC`, the Potency is reported as inconclusive: 22.4 µM [inhibitor, partial curve].
`O=C(CCc1ccccc1)NC(=S)Nc1cc(C(F)(F)F)ccc1N1CCOCC1` was tested, and the “activity, negative = inhibition” value was inactive: -8.39%.
In the case of `CCOC(=O)c1sc2ncnc(N3CCN(c4ccc(OC)cc4)CC3)c2c1C`, the Potency is reported as inconclusive: 17.8 µM [inhibitor, partial curve].
`CCn1c(=O)c2sccc2n2c(CCC(=O)Nc3ccc(OC)cc3OC)nnc12` was tested, and the “activity, negative = inhibition” value was inactive: -0.337%.
For `CC1(C)CN(c2ccccc2)N(C(=O)c2ccc(C#N)cc2)C1=O`, the Potency was inconclusive: 17.8 µM [inhibitor, single point].
For `CCc1ccccc1NC(=O)CN1C(=O)c2cccnc2Sc2ccccc21`, the “activity, negative = inhibition” value was inactive: -14.8%.
For `CCc1ccc(NC(=O)NCC2CCN(c3ccc(OC)cc3)C2)cc1` (stereo not drawn), the Potency was inconclusive: 0.1 µM [inhibitor, full curve].
For `O=C(COc1ccccc1F)Nc1ccc2nc(SCC(=O)N3CCCC3)sc2c1`, the Potency was inconclusive: 1.26 µM [inhibitor, full curve].
For `CC(=O)N1CC=CC1(CC(C)C)C(=O)NCc1ccc(C)o1` (stereo not drawn), the Potency was inconclusive: 22.4 µM [inhibitor, single point].
For `Cn1c2ccccc2c2c(C(=O)NCc3ccco3)cn(C3CCCCC3)c(=O)c21`, the Potency was inconclusive: 39.8 µM [inhibitor, partial curve].
For `CC(/C=C/c1ccccc1)=N\NC(=O)c1ccncc1`, the “activity, negative = inhibition” value was inactive: -7.48%.
`COc1cccc2c1C(=O)c1c(O)c3c(c(O)c1C2=O)C[C@@](O)(C(C)=O)C[C@@H]3O[C@H]1C[C@H](N)[C@H](O)[C@H](C)O1` was tested, and the Potency was active: 4.47 µM and active: 5.01 µM and active: 3.98 µM.
`CCN(CC)C(=O)c1sc(NC(=O)C(Sc2ccccc2)c2ccccc2)c(C(=O)OC(C)C)c1C` (stereo not drawn) was tested, and the “activity, negative = inhibition” value was inactive: -14.4%.
With `CCN(CC)c1ccc(/C=N/n2c(=S)[nH]nc(C)c2=O)cc1` the “activity, negative = inhibition” value was inactive: -10.3%.
In the case of `COc1ccc(S(=O)(=O)N(CC(=O)O)Cc2ccccc2)cc1OC`, the Potency is reported as inconclusive: 39.8 µM [inhibitor, partial curve, poor fit].
With `O=S(=O)(c1ccccc1)c1nc(-c2ccco2)oc1NCc1cccnc1` the “activity, negative = inhibition” value was inactive: -1.92%.
For `CCNc1ccc(-c2nc(-c3ccncc3)no2)cc1[N+](=O)[O-]`, the “activity, negative = inhibition” value was inactive: 2%.
With `O=C(c1cccs1)N1CCC(c2ccccc2)C1` (stereo not drawn) the Potency was inconclusive: 44.7 µM [inhibitor, single point].
`O=C(O)c1ccc(-c2ccc(/C=C3\NC(=O)N(Cc4ccc(Cl)cc4)C3=O)o2)cc1` was tested, and the Potency was inconclusive: 15.8 µM [inhibitor, partial curve].
For `CCC(=O)Nc1ccc(/C=C(\C(C)=O)C(=O)c2ccccc2)cc1`, the “activity, negative = inhibition” value was inactive: -19.5%.
In the case of `COc1cc(C=C(C(C)=O)C(C)=O)ccc1O`, the Potency is reported as inconclusive: 14.1 µM [inhibitor, partial curve, poor fit].
For `CC(C)(C)NC(=O)CSc1nc(O)cc(=O)[nH]1`, the Potency was inconclusive: 39.8 µM [inhibitor, single point].
With `COc1ccc(C(=O)NCCn2cc(SCC(=O)Nc3ccc(F)cc3)c3ccccc32)cc1` the Potency was inconclusive: 7.94 µM [inhibitor, partial curve].
`FC(F)(F)c1nc2ccccc2nc1N/N=C\c1ccccc1` was tested, and the Potency was active: 14.1 µM.
For `COC(=O)[C@@]1(Cc2ccccc2)[C@H]2c3cc(C(=O)N(C)C)n(Cc4ccc(O)c(OC)c4)c3C[C@H]2CN1C(=O)c1ccccc1`, the Potency was inconclusive: 5.62 µM [inhibitor, partial curve].
`S=c1nc[nH]c2c1cnn2-c1ccccc1` was tested, and the Potency was inconclusive: 12.6 µM [inhibitor, partial curve].
In the case of `CCOC(=O)CSC1=C(C#N)C(c2ccco2)C(C(=O)Nc2cccc(C(F)(F)F)c2)=C(C)N1` (stereo not drawn), the Potency is reported as inconclusive: 15.8 µM [inhibitor, partial curve, poor fit].
With `CCOC(=O)C1=C(C)NC(SCc2cc(=O)[nH][nH]2)=C(C#N)C1c1cccs1` (stereo not drawn) the Potency was active: 12.6 µM.
In the case of `COCCNC(=O)c1c(N)n(-c2ccccc2)c2nc3ccccc3nc12`, the Potency is reported as inconclusive: 3.98 µM [inhibitor, partial curve].
With `COc1ccc(C(=O)CSc2nnc(C3CCCCC3)n2N)c(OC)c1` the Potency was inconclusive: 31.6 µM [inhibitor, partial curve, poor fit].
For `Cc1ccc(C(=O)c2coc3cc([N+](=O)[O-])c(O)c([N+](=O)[O-])c23)cc1`, the Potency was active: 3.55 µM.
`Cc1cc(C)c2c(n1)sc1c(=O)[nH]c(SCc3ccccc3)nc12` was tested, and the Potency was inconclusive: 0.1 µM [inhibitor, partial curve].
In the case of `Cc1[nH]c2ccccc2c1C(c1ccncc1)N1CCCCC1` (stereo not drawn), the Potency is reported as inconclusive: 15.8 µM [inhibitor, partial curve].
With `O=C(Oc1ccc([N+](=O)[O-])cc1)c1cncc(Br)c1` the Potency was inconclusive: 39.8 µM [inhibitor, single point].
For `CCCCN(C)CCCNC(=O)c1cc(=O)[nH]c2ccc(S(=O)(=O)N3CCCCC3)cc12`, the “activity, negative = inhibition” value was inactive: 11.9%.
`C/C(CC(=O)Nc1ccccc1Cl)=N\NC(=O)C(=O)NCCO` was tested, and the Potency was inconclusive: 15.8 µM [inhibitor, partial curve].
`COc1cc(/C=N\Nc2nc(-c3ccc(C)cc3)c(NC(C)=O)s2)ccc1O` was tested, and the Potency was inconclusive: 12.6 µM [inhibitor, partial curve].
In the case of `CC(C)(C)c1ccc(NC(=O)C(=O)C2C(=O)Nc3ccccc32)cc1` (stereo not drawn), the Potency is reported as inconclusive: 12.6 µM [inhibitor, partial curve].
With `Cc1nn(-c2ccc(Cl)cc2)c2sc(C(=O)N3CCN(C(=O)c4ccco4)CC3)cc12` the Potency was inconclusive: 2.82 µM [inhibitor, full curve].
`O=C(COc1ccc(Cl)cc1)Nc1sc2c(c1C(=O)Nc1cccc(Cl)c1)CCCC2` was tested, and the Potency was active: 12.6 µM.
With `CCn1nnc(NC(=S)NC(=O)c2ccc(-c3cccc(Cl)c3)o2)n1` the Potency was inconclusive: 2.51 µM [inhibitor, full curve].
In the case of `CSc1nc(-c2ccco2)cc(-c2ccccc2)c1C#N`, the “activity, negative = inhibition” value is reported as inactive: -5.9%.
`CC1CC1c1ccc(/C=C(\C#N)C(=O)Nc2cccc(Cl)c2Cl)o1` (stereo not drawn) was tested, and the Potency was inconclusive: 11.2 µM [inhibitor, partial curve, poor fit].
With `C=CCn1c(SCC(=O)N2CCOCC2)nc2scc(-c3ccco3)c2c1=O` the Potency was inconclusive: 31.6 µM [inhibitor, single point].
For `Cc1occc1-c1nnc(SCC(=O)NCC2CCCO2)n1C` (stereo not drawn), the “activity, negative = inhibition” value was inactive: -6.92%.
With `COc1ccc(C(C[N+](=O)[O-])c2c(-c3ccccc3)cc3ccccn23)cc1OC` (stereo not drawn) the Potency was inconclusive: 8.91 µM [inhibitor, partial curve].
With `Cc1ccc2c(C)nc(Nc3nc(CSc4nnc(C)s4)cc(=O)[nH]3)nc2c1` the Potency was inconclusive: 3.98 µM [inhibitor, partial curve].
In the case of `O=[N+]([O-])c1ccc(N=NNc2ccccc2)cc1`, the Potency is reported as active: 8.91 µM.
With `O=C(N/N=C\c1cc([N+](=O)[O-])ccc1N1CCOCC1)c1ccccn1` the “activity, negative = inhibition” value was inactive: -13.2%.
For `Cc1nn2c3c(cnc2c1-c1ccccc1)C(=O)CC(c1ccccc1)C3` (stereo not drawn), the “activity, negative = inhibition” value was inactive: -10.5%.
`CCOC(=O)c1c(C)oc2ccc(OCC(=O)N(CC)CC)cc12` was tested, and the Potency was inconclusive: 20 µM [inhibitor, single point].
For `Cc1ccc(S(=O)(=O)/C(C#N)=C/c2c(N3CCC(C(N)=O)CC3)nc3c(C)cccn3c2=O)cc1`, the Potency was inconclusive: 20 µM [inhibitor, partial curve].
With `Cn1cc(/C=C2/SC(=O)N(c3ccccc3)C2=O)c2ccccc21` the “activity, negative = inhibition” value was inactive: 5.9%.
For `CC1=NN(c2ccc(Cl)cc2)C(=O)C1C(c1cccc(O)c1)c1c(C)[nH]n(-c2ccc(Cl)cc2)c1=O` (stereo not drawn), the Potency was inconclusive: 25.1 µM [inhibitor, partial curve].
For `O=C1NC2(CCCCC2)N=C1c1ccc(Br)cc1`, the “activity, negative = inhibition” value was inactive: 0.481%.
For `CCc1cccc(CC)c1NC(=O)COC(=O)/C(C#N)=C/c1ccc(OC)cc1`, the “activity, negative = inhibition” value was inactive: -14.4%.
With `Cc1ccc(C(=O)c2c(C)oc3c2C(=O)C(=O)c2ccccc2-3)cc1` the Potency was active: 3.55 µM.
